Some of the results follow.
system: PF3D7_0420300 AP2 domain 1 (GST-tagged); assay: gcPBM binding intensity (ln(normalized median fluorescence intensity)); higher = stronger DNA binding
How it was run: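 Binding of GST-tagged P. falciparum DNA-binding domains, expressed in E. coli and used at about 25 μg on average, was carried out for 1 h in 1× PBS containing 1% milk, 0.2 mg/ml BSA, 0.5% salmon testes DNA and 0.03% Triton X-100. The target was an Agilent 4 × 180k array of primer-extended double-stranded 36-bp intergenic genomic probes plus negative controls, read with Alexa488 anti-GST antibody at 488 nm. Binding intensity is the highest Masliner-normalised natural-log median intensity across replicate spots of either probe orientation.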

Sequence	gcPBM binding intensity (ln)
TGTATTATATATACACAAATATTTATGTGTGTGTTT [XGTACX_negctrl_site475]	9.81
TTTTTTTGTATTTGTTTATTTAATGATAAAATTAAA [CACACA_negctrl_site225]	9.03
AATATAAACAAACACACACACATATATATATATATT [CACACA_site5592]	10.1
ATGTCATATAATAGTACACACATGAAAATATAAATA [CACACA_site3215]	9.66
ATAAAAAAAGGACACACACACATATATTTATTTATA [CACACA_site7438]	10.1
AAAAAAAAAAAAAATAGTACAATACCCAAATATAAC [XGTACX_site6684]	9.8
ACTATTAAAATGAATACACACAAATATAAAAATATA [CACACA_site4145]	9.66
GGTAGGGATTATACCACACACACATACACATAAATA [CACACA_site3179]	9.89
ACGCTACATAAATACGTGCACATCTTTTTGTGTATA [GTGCAC_site9675]	9.29
CATCTTATATAATCATGTACATATAGAGACTTCTTT [XGTACX_site7685]	9.19
TTTTTCTTACATGAGTGTACACACTTTTTTTCAGAA [XGTACX_site138]	9.29
GGGGGAATTTACATGGGTACACATGTATTAAAAAAT [XGTACX_site4130]	9.43
TTATATGTATGGAGGTTTTTGTATATAGATATATAG [CACACA_negctrl_site177]	9.29
CATATATATTTGTTCACACACACACTAATAAAAAAA [CACACA_site8787]	9.92
TGGAGGAACCTCATATGTACGTATAAATATATATTT [XGTACX_site5603]	9.3
TTAAAGCACCCATGCACACACACAAAGGAAAAGAAA [CACACA_site233]	9.87
TGATAAATTAAAAATTGTACTATTATAATAATATAT [XGTACX_site6615]	8.94
TTTATATAAATTTATTCACACAACTAATTTTTTAAA [CACACA_site4848]	8.94
ACAATAAACATATATACACACACAAAAAAAAAAACA [CACACA_site8033]	10.3
ATCAAATAGAGACACACACACCTAAACATAAAAGAA [CACACA_site7321]	9.95
ATTTATTAATATCCCAGTACTCATGGGGAATAATGA [XGTACX_site4014]	9.12
TTGTGTAAAGGTATTATTGTATTATTCAAAATAAAA [XGTACX_negctrl_site167]	8.95
AATATATAATATATATGTACTTATATATAAAAGATA [XGTACX_site7635]	9.21

Sequence	gcPBM binding intensity (ln)
TATTACATAATACAAAGTACATATATTTTTTTATTT [XGTACX_site7061]	9.08
GTATATATATATATATGTACTAATTAGTAGTTTACG [XGTACX_site6274]	9.25
AATATTATAAATGATACACACTTAAAATACACGCAC [CACACA_site7305]	9.77
ATATTTATACATAAATGTACTTTTATATATTTAATA [XGTACX_site3020]	9.18
AGCACATATATATTATGTACATATAACTTCCCAGTG [XGTACX_site7095]	9.36
AATATTTTATTTTGGGTGCAAAAGAATATTATTTCA	8.93
TGATATTTACAAATATTAAGATCTTATATTTTTTTT [CACACA_negctrl_site617]	8.98
GTGTGAAACATAAACACACACAAAAAGAAAAAATAG [CACACA_site1227]	9.7
AATATAAATATTAAAACACACATAAAAAGATTATTA [CACACA_site1764]	9.41
TATATATATATATTACGTACATAGAACTTTATAAAA [XGTACX_site4485]	9.08
GAACCATAAGGAACGACACACAAAGATAAATAAATA [CACACA_site3472]	9.48
AAAAAAAAATTATTCACACATATATATATATATATA [CACACA_site5579]	9.02
AAAAATAAAAAAAGCACACACATATATATATATATA [CACACA_site1885]	9.75
AAATTTGCTTTTATTTTACACACTTGCTCCTGTTGT [CACACA_site8276]	9.81
ATAATATTTTAATGCACACACACAAAAAAAAAAAAA [CACACA_site2891]	9.72
AAACAATCTAAAAGTAGTACAATAAAAATATATATA [XGTACX_site5607]	9.41
CGATACTTTAGGTGTACACAAATATACATGAATGAG [CACACA_site5189]	9.32
AAAAAAAAGGAAATAACACACATGTATTTATTTATA [CACACA_site4966]	9.26
TTATTATAAATGTTTTGTACGTACATCCGAAAATAA [XGTACX_site2175]	9.05
TATAATCATATTAAGGGTACATATGTGTAAATATTT [XGTACX_site6018]	9.23
ATAATAATAATATAACCAAGGAAATATAATATTTGT [XGTACX_negctrl_site485]	9.41
CTTTAAAACCGGTACTGTACACATAGTATTATTATC [XGTACX_site2602]	9.39
ATTAATAAGAAATATACACACATGGATAAATACATA [CACACA_site1872]	9.69

Sequence	gcPBM binding intensity (ln)
TTTCTTGCTACATGAAGTACACTTTCTATGACTCGT [XGTACX_site5583]	9.12
ATATATATTTTATTCACACATAAGATTATAAAACAT [CACACA_site5369]	9.27
TATGATATAATTATGTGTACACAATTTTTTTTTTTT [XGTACX_site1084]	9.34
TGTGTTCAGTATTGCACACACACAACAAAATAAAAA [CACACA_site8017]	9.63
TTATTGCATTGTTTTTATAAAAAAAAAAAAAAAATT [XGTACX_negctrl_site104]	8.96
CTATTTCATGGACACACACACACAAACAAACATATA [CACACA_site4696]	10.2
ATATATTATATAAAGTGTACAAAAAAAATATATAAA [XGTACX_site8065]	9.5
TTATAAATATAAAAATGTACAGAAAAAAAAAATAAA [XGTACX_site863]	9.52
AAAAGATTTATACATACACACATATTATATTCACAT [CACACA_site3713]	9.64
ATAGAACTATATTGCACACATAATATATATATATAT [CACACA_site3189]	9.45
GTAAAAAATATGACAAGTACAAGAAAAGAAAAAAGT [XGTACX_site7906]	9.77
TAATATAAAGAAAAGGAACACACAAATATATATATA [CACACA_site8049]	9.8
TTTTCTTGGTTCAGTGTGCACTTATATATATATATA	9.63
TTATAATATATATACAGTACATATATAAAATAATAT [XGTACX_site5917]	9.25
TTATTTCTCTTTTCAGTGCATTTTATAACAAAAAAA [GTGCAC_site9930]	8.95
ATATATATAATATGCGGTACACATTAATTAAATCAT [XGTACX_site5702]	9.44
TTATTTTATAATAAAAGTACACAAAAAAAAAAAAAA [XGTACX_site7668]	8.94
GTAGAGCATAATAAAACACACACATACATACATATA [CACACA_site8217]	9.84
ATGGACATCTATTGTTGTACACATTTTCCCATAACA [XGTACX_site5429]	9.22
TTTCAAAAATGAGTTACACACACACGGATATAAATA [CACACA_site7116]	9.91
GAATATAAAATATATATATATATATATATATATATA [GTGCAC_negctrl_site425]	8.79
AATTTTAAGAGCTATACATGCACTTCATAAAAAGTG [TGCATGCA_site180]	8.87
ATAATAAAAAAAAATGCACACATATATATATATATA [CACACA_site8766]	9.21

Sequence	gcPBM binding intensity (ln)
TAACAATTAATAAAAGGTACACTTGAATATGCACCA [XGTACX_site2717]	9.16
AATATATATATATATACACACACACCGATATATATA [CACACA_site8158]	10.1
TTAATATTTAGACATGCATGCTAATTACTATATATA [TGCATGCA_site27]	9.09
ATTAATATTCTATATGCATGTGAACCATGGTATATA [TGCATGCA_site430]	9.12
ATATATATATATATATGTACTTATTTATCGTATTAT [XGTACX_site3520]	9.36
TCATATCTTTTGAGCACACATATATATATATAAAGG [CACACA_site3338]	9.12
ATAAAATATTAATTTTAAATTAATCAATATATATAA [GTGCAC_negctrl_site474]	8.95
AGGCTCAAATCTAGGTGTACCATTATCGTTGTATCT [XGTACX_site4730]	9.41
ATTTTTTCTTATAATGCATGTAGAAAACCGTACAGC [TGCATGCA_site57]	8.91
TATGTGTTTATTTGGTGTACATACTAATAAATATAC [XGTACX_site1682]	9.31
CCTAAATTATATTATGCACACTTAAAAATATATTTA [CACACA_site5861]	9.14
ATATAATAAAATGACACACGCATATATATATATATA [CACACA_site2789]	9.33
TTATATTTATTTATTTGTACATATTTTTTTTTATAT [XGTACX_site1669]	9.21
TTTCTTTTTAAATATATACACACCGTGGGTACATAT [CACACA_site9102]	9.22
ATATATATATATAACTGTACTTATATATACATTTTA [XGTACX_site8605]	9.25
ATATATATATATATATGTACATATATATATAATTTT [XGTACX_site4146]	9.18
TAAATAAATAAAAAAACACACATATATATATATATA [CACACA_site4029]	9.51
TTTTATCACATTATTGCACACACATAAAGAAAAAAA [CACACA_site8922]	9.52
ACGGGTCAATATATGCGTACTTATTTAAATAATTAA [XGTACX_site1518]	9.21
ATTATGTATATAAATTAACACACATATGTGGTTAAT [CACACA_site9028]	9.31

Source: the supplement of paper PMC11417369
